Article PMC6919601, “Identification of Plasmodium dipeptidyl aminopeptidase allosteric inhibitors by high throughput screening” (PLoS ONE, 2019)
Values joined by “and” are separate entries in the source; they are usually repeats but may differ in a detail not shown here. Equal values may be shown once. About 230 (0.21%) of roughly 110,000 compounds showed an effect of 50% or more. Some of the results follow.

What follows are compounds tested against DPAP1 (Plasmodium falciparum, UniProt Q8IIJ9) (assay: primary screen, percent inhibition; read by cleavage of a fluorogenic dipeptide substrate; higher = more effect of the substance).
Set-up: species or system P. falciparum D10 trophozoite lysates; single well
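Further: 30 min substrate incubation versus DMSO and 10 µM JCP410 controls.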

DPAP1, sequence (Q8IIJ9 whole entry, looked up): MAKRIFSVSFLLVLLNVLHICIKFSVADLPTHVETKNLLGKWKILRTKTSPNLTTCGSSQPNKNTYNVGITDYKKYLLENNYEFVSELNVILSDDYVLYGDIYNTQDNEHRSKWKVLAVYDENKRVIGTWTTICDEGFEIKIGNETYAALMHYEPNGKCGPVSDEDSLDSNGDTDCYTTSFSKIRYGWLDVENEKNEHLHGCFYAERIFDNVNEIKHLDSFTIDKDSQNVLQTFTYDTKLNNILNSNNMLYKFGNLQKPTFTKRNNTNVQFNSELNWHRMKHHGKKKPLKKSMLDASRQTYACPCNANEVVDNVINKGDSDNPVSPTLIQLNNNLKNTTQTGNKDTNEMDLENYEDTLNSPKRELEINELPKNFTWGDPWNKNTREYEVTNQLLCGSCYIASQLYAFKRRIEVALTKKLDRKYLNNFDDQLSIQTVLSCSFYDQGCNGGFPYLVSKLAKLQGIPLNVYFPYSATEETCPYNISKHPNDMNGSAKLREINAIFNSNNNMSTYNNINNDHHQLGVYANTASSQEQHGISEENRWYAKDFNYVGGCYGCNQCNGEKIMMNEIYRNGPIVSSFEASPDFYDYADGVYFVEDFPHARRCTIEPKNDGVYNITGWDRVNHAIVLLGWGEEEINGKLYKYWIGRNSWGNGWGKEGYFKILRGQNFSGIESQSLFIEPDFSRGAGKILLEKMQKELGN

Row | Structure (SMILES) | % Inhibition @ 10 uM
1 | N#CC1=C(N)Oc2[nH]nc(-c3ccc4c(c3)OCO4)c2C1c1ccc(F)c(Br)c1 (centres unmarked) | -6.18%
2 | O=C1c2ccccc2C(=O)N1COC1CCCCC1 | -7.27%
3 | Cc1ccc2nc(Cl)c(C#N)cc2c1 | -0.703%
4 | NC(=O)C1(N2CCCCC2)CCN(S(=O)(=O)c2ccc(Cl)s2)CC1 | 1.67%
5 | O=C(NCC1CCCO1)c1ccc2c(O)c(S(=O)(=O)c3ccccc3)c(O)nc2c1 (centres unmarked) | -2.84%
6 | CC(CNC(=O)c1ccc2nc(N)sc2c1)NC(=O)c1ccc2nc(N)sc2c1 (centres unmarked) | 0.777% and 0.163%
7 | O=C(Nc1cc(Br)cc2cccnc12)c1ccc(Cl)cc1 | 1.08%
8 | CC(C)NC(=O)C(=O)NCc1ccc(Cl)cc1 | 1.29%
9 | O=C(NCc1ccccc1Cl)C1CCCN(S(=O)(=O)c2ccc(Br)s2)C1 (centres unmarked) | -3.87%
10 | Clc1ccc(Cc2nc(-c3ccc(-n4cccc4)cc3)no2)cc1 | -6.23%
11 | O=C(Nc1cccnc1)C1=Cc2sc3c(c2CS1)CCCC3 | 2.58%
12 | COc1ccc(-c2noc(-c3ccc(Cl)cc3)n2)cc1OC | -10%
13 | Oc1nc(CN2CCN(Cc3ccc4c(c3)OCO4)CC2)nc2ccccc12 | -1.12%
14 | CC(C)C[C@H](Nc1nc(-c2cccc(NC(=O)OCc3ccc(Cl)c(Cl)c3)c2)cs1)C(=O)NCC#N | 15.9%
15 | FC(F)(F)c1nc2ccccc2n1CCc1ccccc1 | 0.776%
16 | CCN(CC)CCCN(C)C(=O)c1cc2c(s1)-c1c(C)cccc1OC2 | -1.37%
17 | CO/C(O)=C1/C(C)=NC(=S)NC1c1ccc(C(C)C)cc1 (centres unmarked) | 1.43%
18 | CCc1ccc(NS(=O)(=O)c2cc(Cl)ccc2Cl)cc1 | -0.351%
19 | Cc1cc(C(=O)NC(C)C2CC2)c(Cl)cc1Cl (centres unmarked) | 1.21%
20 | Cc1cccc(OCC(=O)Nc2noc3ccccc23)c1 | 2.19%
21 | CC1CC(C)CN(Cc2nc3c(c(=O)n(C)c(=O)n3C)n2Cc2cccc(Cl)c2)C1 (centres unmarked) | 1.23%

Row | Structure (SMILES) | % Inhibition @ 10 uM
22 | N#Cc1c(/N=C/c2cc(Cl)cc(Cl)c2O)sc2c1C1CCN2CC1 | -1.81%
23 | CC(C)CCN1C(=O)c2ccc(C34CC5CC(CC(C5)C3)C4)cc2C1=O | -1.72%
24 | Cc1cc(C)c(OCC(=O)N(Cc2sccc2C)C2CCS(=O)(=O)C2)c(C)c1 (centres unmarked) | -2.85%
25 | O=C1N=C(Nc2ccc(Br)cc2)S/C1=C1\C(=O)Nc2ccccc21 | 4.03%
26 | CCC1CC2CCN1C([C@@H](O)c1ccnc3ccccc13)C2 (some centres unmarked) | 6.77%
27 | Cc1ccc(C)c(S(=O)(=O)c2nnn3c2nc(N2CCOCC2)c2ccccc23)c1 | 1.89%
28 | Cc1cc2c(c(=O)n1Cc1cccnc1)C(c1cc3c(cc1Br)OCO3)C(C#N)=C(N)O2 (centres unmarked) | -3.16%
29 | O=C(CN(Cc1ccccc1)S(=O)(=O)c1ccc(F)cc1)N1CCCCCC1 | 1.02%
30 | CN(C1CCCCC1)S(=O)(=O)N1CCCC(C(=O)NCCCc2ccccc2)C1 (centres unmarked) | -5.65%
31 | COc1ccc(CNc2nc(-c3ccccc3)nn2C(=O)c2ccco2)cc1 | -6.71%
32 | O=C(NCc1ccco1)c1ccc2ccccc2c1 | 1.13%
33 | Cc1ccc(-c2ccc(=O)n(CCC(=O)NCCN3C(C)CCCC3C)n2)cc1 (centres unmarked) | 1.62%
34 | COc1ccc(Cl)cc1-n1nnc(-c2nc(-c3ccc4c(c3)OCO4)no2)c1N | 0.331%
35 | CCCc1cc2c3c(c(=O)oc2cc1O)CCC3 | -3.38%
36 | CCCCCc1ccc(-c2nc(-c3ccc(Br)cc3)no2)cc1 | 1.41%
37 | O=C(O)c1cnc(-c2ccccc2)nc1N1CCOCC1 | 5.58%
38 | CCCc1cc(O)n2nc(-c3cccc(Br)c3)cc2n1 | -4.82%
39 | Cc1nc2c(-c3ccc(F)cc3)c(C)nn2c(C)c1CCC(=O)NC1CCCC1 | -2.25%
40 | Cc1ccccc1-c1ccccc1N | -0.305%
41 | COCCCNC(=O)Cc1c(C(=O)O)[nH]c2ccc(Cl)cc12 | -1.59%
42 | COc1cc(NC(=O)Nc2ccc(Cl)cc2)cc(OC)c1 | 3.8%

Row | Structure (SMILES) | % Inhibition @ 10 uM
43 | O=C(N[C@H](/C=C/S(=O)(=O)c1ccccc1)CCc1ccccc1)[C@H](CS(=O)(=O)Cc1ccccc1)NC(=O)N1CCOCC1 | -3.49%
44 | COc1ccc(C2C3CCc4cc(OC)ccc4C3=NN2C(C)=O)cc1 (centres unmarked) | -6.11%
45 | COc1cccc(CN2C(=O)c3cccc(N)c3C2=O)c1 | -1.57%
46 | O=C(O)c1ccc2cc(-c3ccccc3)[nH]c2c1 | -5.1%
47 | C=CCOC(=O)C1=C(C)N=C2CCCC(O)=C2C1c1cccc(Cl)c1 (centres unmarked) | -6%
48 | O=C(/C(=C(\O)c1ccccc1)[n+]1ccc2ccccc2c1)c1ccc(Cl)cc1 | 0.343%
49 | Cc1ccc(NC(=O)CN2C(=O)S/C(=C\c3ccccc3C)C2=O)cc1 | -5.4%
50 | CC(=O)c1cccc(NC(=O)c2scc3c2CCCC3)c1 | -1.06%
51 | COc1ccc(C2CC(=O)Nc3ccc4ccccc4c32)c(OC)c1 (centres unmarked) | 4.07%
52 | COc1ccc(C(CC(=O)O)NC(=O)Cc2ccc(Cl)cc2)cc1 (centres unmarked) | 0.248%
53 | CS(=O)(=O)N(CC(=O)N1CCOCC1)c1cc(Cl)cc(Cl)c1 | -8.76%
54 | CC(=O)N1c2ccccc2N=C2CC(C)(C)CC(O)=C2C1c1cccc(Br)c1 (centres unmarked) | 0.674%
55 | N#CC1=C(N)Oc2c(c(O)nc3ccccc23)C1c1ccc(C(F)(F)F)cc1 (centres unmarked) | -4.04%
56 | CCc1nnc(NC(=O)Cn2ncc3c2-c2cc(C)ccc2OC3)s1 | 1.77%
57 | Cc1c(C(=O)Nc2nc3ccccc3s2)sc2ncn(CC(=O)N3CC(C)CC(C)C3)c(=O)c12 (centres unmarked) | 1.2%
58 | O=C(CCCc1ccccc1)NCc1cn2ccsc2n1 | 5.65%
59 | COc1cccc(-c2cc(C(F)(F)F)nc(-n3nnnc3C)n2)c1 | 1.82%
60 | COCCCNC(=O)/C(C#N)=C/c1c(Oc2cccc(C)c2C)nc2ccccn2c1=O | -5.1%
61 | CC(NC(=O)C1CCCN(C(=O)N(C)C)C1)c1ccccc1 (centres unmarked) | -2.99%
62 | COc1ccc(N(CC(=O)Nc2ccc(C)c(C)c2)S(=O)(=O)c2ccc(NC(C)=O)cc2)cc1 | 2.02%
